Inconclusive results, whose numbers are uncertain, are shown with a selection of clear calls. A potency beside an inconclusive call is a rough fit, not a confirmed value. Activity calls are given as the source filed them. Calls follow the shape of the dose curve; as a rule, active = well fitted inhibition curve with a large enough effect; inconclusive = small, poorly fitted or top-dose-only effect, or effect the other way, or another doubt; inactive = no such curve, though single readings can be large or run the other way.
test: Confirmation Concentration-Response Assay for lipid storage modulators; details: Drosophila S3 cells, lipid droplet BODIPY/CellTracker ratio, 18-24 h; series mostly up to 46.1 µM; also: nearly all actives have a fitted effect of over 80% in size
In short: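 Cells at 5,000/well received compound as a titration plus oleic acid (added as 400 uM solution) and were incubated 18–24 h at 24 °C. BODIPY 493/503 lipid signal and CellTracker Red cell count were read by 488-nm laser-scanning cytometry. Activity was normalised to 20 uM Triacsin C.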
Potency is read from the fitted curve at half-maximal effect; tags tell the direction and shape of the fitted curve.

SMILES	Potency
C1=C(CCNc2ncnc3c2[nH]c2ccccc23)CCCC1	active: 0.996 µM
Cc1ccc(CNc2nc(-c3cccs3)nc3ccccc23)cc1	inconclusive: 0.281 µM [activator, full curve]
COc1ccc(C)cc1NC(=O)C1CCN(S(=O)(=O)c2cccc3cccnc23)CC1	active: 15.8 µM
COc1ccc(C2=NN(S(C)(=O)=O)C(c3ccc4nccnc4c3)C2)cc1 (stereo not given)	inconclusive: 6.28 µM [activator, full curve]
O=S(=O)(NC1CCCC1)c1cccc(-c2nnc(-c3ccccc3)o2)c1	inconclusive: 1.77 µM [activator, partial curve]
Cc1ccc(NC2=NCC(=O)N2Cc2ccc3c(c2)OCO3)c(C)c1	inconclusive: 1.41 µM [activator, partial curve]
CCOc1ccc(CCNC(=O)c2sc3nc4n(c(=O)c3c2C)CCC4)cc1OCC	inconclusive: 12.5 µM [activator, partial curve, poor fit]
Cc1nn(-c2ccccc2)c2sc(C(=O)N(CC(=O)NC3CCCC3)Cc3ccco3)cc12	inconclusive: 0.199 µM [activator, full curve]
COCc1ccc(C(=O)NC2CCCc3c2cnn3-c2cc(C)cc(C)c2)s1 (stereo not given)	active: 0.0244 µM
COc1ccc(-c2nnc(-c3ccc(N)cc3)o2)cc1	inconclusive: 0.996 µM [activator, full curve]
